Assay results: PubChem BioAssay AID1159614 (National Center for Advancing Translational Sciences (NCATS), 2016)
The whole screen tested about 45,000 compounds, of which about 65 (0.1%) were called active. Calls follow the shape of the dose curve; as a rule, active = well fitted activation curve with a large enough effect; inconclusive = small, poorly fitted or top-dose-only effect; inactive = no such curve, though single readings can be large or run the other way. Some of the results follow.

Molecular target: Galactocerebrosidase (Homo sapiens) (UniProt P54803)
Sequence of UniProt P54803 (P54803 whole entry, looked up): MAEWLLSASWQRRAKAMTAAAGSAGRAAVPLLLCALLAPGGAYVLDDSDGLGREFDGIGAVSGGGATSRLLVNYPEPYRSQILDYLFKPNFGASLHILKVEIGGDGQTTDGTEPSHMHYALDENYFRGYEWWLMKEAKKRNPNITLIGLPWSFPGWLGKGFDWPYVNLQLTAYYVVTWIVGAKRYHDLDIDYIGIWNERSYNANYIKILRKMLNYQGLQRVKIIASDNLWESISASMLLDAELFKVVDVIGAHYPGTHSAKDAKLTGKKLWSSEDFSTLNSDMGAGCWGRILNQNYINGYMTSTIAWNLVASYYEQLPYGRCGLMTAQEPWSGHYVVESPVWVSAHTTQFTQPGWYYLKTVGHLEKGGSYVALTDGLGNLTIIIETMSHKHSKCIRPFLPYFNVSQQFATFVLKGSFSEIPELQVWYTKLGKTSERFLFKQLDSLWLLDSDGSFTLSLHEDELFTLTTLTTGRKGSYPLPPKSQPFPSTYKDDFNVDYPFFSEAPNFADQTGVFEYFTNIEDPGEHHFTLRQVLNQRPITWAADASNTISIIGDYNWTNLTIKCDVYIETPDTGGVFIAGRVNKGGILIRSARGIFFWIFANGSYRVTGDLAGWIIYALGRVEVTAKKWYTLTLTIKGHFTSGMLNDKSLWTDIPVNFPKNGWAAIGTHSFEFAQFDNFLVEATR
Assay: A Novel Cell-Based Assay to Identify Small Molecules for B -Galactocerebrosidase; also: 0% is about no effect; nearly all actives have a fitted effect of over 65% in size
Settings: 145M-Twi-hGALC-G270D cells, HMU-beta-Gal fluorescence, 48 h; series mostly up to 57.5 µM; activation: at the top concentration
How it was run: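 qHTS, 1536-well; 145M-Twi-hGALC-G270D cells (WT line also made) in DMEM/F12 + 10% FBS; compound incubation on live cells; HMU-β-gal 0.1 mM final, pH 5.2, NaTC; carbonate stop; fluorescence increase = enhanced residual activity.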

activation, inactive:
COc1ccc(Br)c(C(=O)Nc2cc3c(cc2N2CCCCC2)n(C)c(=O)c(=O)n3C)c1 -10.7%
CCOc1ccc(-c2cc(-c3nc(-c4cc(OC)c(OC)c(OC)c4)no3)[nH]n2)cc1Cl -19%
CC(=O)Nc1ccc(NC(=O)c2ccc(COc3ccc(Cl)cc3Cl)o2)cc1 -7.45%
Cc1cccc(NC(=O)c2c(C)cc(C)nc2SCC(=O)Nc2c(C)cc(C)cc2C)c1 -11.5%
Cc1ccc(-n2nc(CO)c(C(=O)NCc3cccs3)n2)cc1C -10.6%
COC(=O)c1ccccc1NC(=O)c1ccc2nc(Cc3ccccc3)oc2c1 -14.6%
O=C(CCCn1c(=O)c2ccccc2n(Cc2ccc(F)cc2Cl)c1=O)NCCc1ccc(Cl)cc1 -6.87%
COC(=O)c1ccccc1NC(=O)c1nc(S(=O)(=O)Cc2cccc(C)c2)ncc1Cl -16.4%
CC(=O)c1cccc(NC(=O)CSc2nc(=O)n(Cc3cccnc3)c3c2CCC3)c1 -10.7%
Oc1c(C(c2ccccc2F)N2CCCCC2)sc2nc(-c3ccco3)nn12 (configuration not stated) -5.12%
Cc1cc(C)cc(NC(=O)CCCN2C(=O)COc3ccc(C)cc32)c1 -1.94%
O=C(COc1ccc([N+](=O)[O-])cc1)NCC1(N2CCOCC2)CCCCC1 -23%
COc1ccc(C)cc1NC(=O)C1CCN(S(=O)(=O)c2ccc3[nH]c4c(c3c2)CCCCC4)CC1 -12.2%
Nc1cc(=O)nc(SCC(=O)Nc2ccc(F)cc2)n1-c1ccccc1Cl -17.1%
Cc1nc2sccn2c(=O)c1CCN1CCC(=C(c2ccc(F)cc2)c2ccc(F)cc2)CC1 -15.4%
COc1ccc(-n2ncc(C(=O)N3CCN(c4ncccn4)CC3)c2C2CCN(C(=O)OC(C)(C)C)CC2)cc1 3.57%
Cc1ccccc1Nc1c(-c2ccc(Cl)s2)nc2c(C)cccn12 -33.6%
O=C(CCc1cn(Cc2ccccc2Cl)c2ccccc12)NC1CCCCC1 0.108%
Cc1ccc(NC(=O)c2cn3c4c(ccc(Cl)c4c2=O)OC(C)C3)c(C)c1 (configuration not stated) -12%
CC(C)CC(=O)Nc1ccc(S(=O)(=O)Nc2cc3c(cc2N2CCOCC2)n(C)c(=O)c(=O)n3C)cc1 -9.69%
CC(C)c1ccc(NC(=O)C2CCN(c3nc(-c4ccc(C(C)C)cc4)no3)CC2)cc1 -32.3%
CCCCc1nc2ccccc2n2c(-c3ccc(OC)cc3)c3c(=O)n(C)c(=O)n(C)c3c12 -8.23%
Cc1c(C(=O)N2CCC(C)CC2)c(S(=O)(=O)NCc2ccc(Br)cc2)c(C)n1C -4.91%
O=C(Nc1ccc2c(c1)CCCN2C(=O)c1cccs1)c1c(F)cccc1F 5.6%
CC(C)c1ccc(NC(=O)c2ccc3c(c2)CCCN3S(C)(=O)=O)cc1 -26.4%
C[C@H](CCC(=O)O)[C@H]1CC[C@H]2[C@@H]3C(=O)C[C@@H]4CC(=O)CC[C@]4(C)[C@H]3CC(=O)[C@]12C -14.2%
CCOc1ccccc1NC(=O)Cn1c(=O)n(CCCC(=O)NCCc2ccc(C)cc2)c(=O)c2ccccc21 -11.7%
COc1ccc(-c2c(C)c3cc(OC(=O)N4CCOCC4)ccc3oc2=O)cc1 -13.5%
Cc1ccc(N2CC(NC(=O)c3ccc(S(=O)(=O)N4CCCC4)cc3)CC2=O)cc1 (configuration not stated) -9.39%
CC(C)(C)OC(=O)N1CCC(c2c(C(=O)NCCCN3CCc4ccccc4C3)cnn2-c2ccccc2)CC1 -20.7%
CCc1ccc(CNC(=O)CN(c2ccc(C)cc2)S(=O)(=O)N(C)C)cc1 -33.2%
N#Cc1c(-n2ncnc2-c2ccc(Br)cc2)sc2c1CCCCC2 -17.6%
CSc1ccc(CNC(=O)C2CCN(c3nnc(-n4cccc4CNc4ccc(C)cc4)s3)CC2)cc1 -26.5%
COc1ccc(OC)c(CCNC(=O)C2CCN(c3ncnc4c3nc3n4CCCCC3)CC2)c1 1.66%
O=C(Cn1cc(SCc2ccccc2)c2ccccc21)N1CCCCC1 1.62%
COc1ccc(-c2nc(C)c(CCNC(=O)C(=O)Nc3c(C)cccc3C)s2)cc1OC -28.7%
Nc1nc(N)c(S(=O)(=O)c2ccccc2)c(Nc2ccc(Br)cc2)n1 -28.7%
COc1cccc(-c2cc(C(F)(F)F)nc(-n3nc(C)c(Br)c3C)n2)c1 -13.4%
COc1ccc(C(=O)NCC(c2cccnc2)N2CCN(c3ccc(F)cc3)CC2)cc1 (configuration not stated) -15.9%
O=C(NCC(c1ccc(Cl)cc1)N1CCCCC1)c1ccc(F)cc1 (configuration not stated) -13.1%
Cc1cccc(NC(=O)C(=O)c2cc(C)n(-c3ccccc3)c2C)c1C -19.8%
CCOc1cccc2cc(-c3nc4sc(C(=O)Nc5ccc(C)cc5)c(C)c4c(=O)[nH]3)c(=O)oc12 -13.3%
COc1ccccc1CNC(=O)c1cccn1-c1nnc(N2CCCC2)s1 -11.7%
Cc1cccc(NC(=O)Cn2nc(-c3ccc(Cl)cc3)c3ccccc3c2=O)c1 -13%
Cc1ccc(-n2c(SCc3ccccc3F)nc3[nH]ncc3c2=O)cc1C -13.9%
O=C(CSc1ccc2nc(-c3ccccc3)cn2n1)Nc1ccccc1C(F)(F)F -5.05%
Cc1cccc(NC(=O)CSc2nc3c(c(=O)[nH]2)CN(Cc2ccc4c(c2)OCO4)CC3)c1C -20.9%
CC(=O)c1cc(-c2ccccc2)n(CC(=O)NC2CCCCCC2)c1C -15.7%
CN(C1CCCCC1)S(=O)(=O)c1ccc(C(=O)Nc2sc3c(c2C(N)=O)CC(C)(C)NC3(C)C)cc1 -31.1%
COc1ccc(N2CCN(C(=O)CSCc3nc(-c4ccccc4Cl)oc3C)CC2)cc1 7.64%
CCc1nc(-c2cc(S(=O)(=O)N3CCN(c4ccc(F)cc4)CC3)ccc2OC)no1 -10.2%
O=C(NCCc1ccc(Cl)cc1)c1cccn1-c1nnc(N2CCCCC2)s1 -10.9%
Cc1cc(O)c(C(c2cccc(F)c2)N2CCC(C)CC2)c(=O)n1Cc1ccco1 (configuration not stated) -14.3%
O=C(Cn1c(=O)n(Cc2cccs2)c(=O)c2cccnc21)Nc1ccccc1F -15.3%
CCOC(=O)N1CCc2c(sc3c2c(=O)n(Cc2ccccc2)c(=O)n3CC(=O)Nc2c(C)cccc2C)C1 -22.8%
O=C(NCc1cccc(F)c1)c1ccc(CS(=O)c2ccccc2Cl)o1 (configuration not stated) 8.32%
Cn1c(=O)c(=O)n(C)c2cc(S(=O)(=O)N3CCN(c4ccccc4F)CC3)ccc21 -3.55%
CCc1ccc(-n2c(=O)c3cccnc3n2CC(=O)NCc2ccc(F)cc2)cc1 -21.8%
Cc1cccc(C)c1OCC(=O)Nc1nonc1-c1ccc(Br)cc1 -11.1%
Cc1ccc(C(=O)Nc2ccc(-n3c(C)nc4ccccc4c3=O)cc2)cc1[N+](=O)[O-] -12.3%
COc1ccc(OC)c(NC(=O)Cn2c(=O)oc3cc(S(=O)(=O)NCc4ccccc4)ccc32)c1 -10.8%
O=C(NCC12CC3CC(CC(C3)C1)C2)c1cc2nc(-c3ccc(Cl)cc3)cc(C(F)(F)F)n2n1 -1.61%
O=C(Nc1nc2n(n1)C(c1ccc(F)cc1)C=C(c1ccc(Cl)cc1)N2)c1ccco1 (configuration not stated) -6.03%
CCOC(=O)c1ccc(N2C(=O)c3n[nH]c(-c4cccs4)c3C2c2ccc(O)c(OC)c2)cc1 (configuration not stated) -9.82%
CCN(C(=O)CCS(=O)(=O)c1cccc2nsnc12)c1cccc(C)c1 -11.4%
CCN(C(=O)c1cc2c(s1)-c1c(C)cccc1OC2)c1cc(C)ccc1C -14.5%
CCOc1ccc2oc(=O)cc(CN3CCN(c4ccc(OC)cc4)CC3)c2c1 0.868%
COc1ccc(-n2c(=O)c3ccccc3n(Cc3ccc(F)cc3Cl)c2=O)cc1OC -6.76%
Clc1cccc(-c2nnc(CN3CCN(c4ccccn4)CC3)o2)c1 -29.6%
COc1ccc(NC(=O)C(CC(C)C)NC(=O)C2CCCCC2)c(OC)c1 (configuration not stated) -6.22%
CCc1nc2ccc(C(=O)NCCc3ccc(SC)cc3)cc2nc1CC -19.9%
Cc1cc(S(=O)(=O)Nc2cc3c(cc2N2CCOCC2)n(C)c(=O)n3C)ccc1F -8.05%
CCOc1ccc(CNC(=O)C2CCN(C3=NS(=O)(=O)C(c4ccc(C)cc4)=C3CC)CC2)cc1 -1.86%
COc1cc(NC(=O)c2cc(-c3ccccc3O)no2)cc(OC)c1OC -10.5%
CC(=O)Nc1nonc1-c1nnc(SCC(=O)Nc2ccccc2Cl)n1C -16%
COc1ccc(C2CC(=O)c3cc(-c4nc(-c5ccc(Cl)cc5)cs4)c(=O)[nH]c3C2)cc1 (configuration not stated) -14.5%
COc1ccc(NC(=O)C2CCN(C(=O)c3sc4nc[nH]c(=O)c4c3C)CC2)c(OC)c1 -2.22%
Cc1cccc(N2CCN(c3nc4ccccc4c4nc(-c5ccccc5)nn34)CC2)c1C -20.3%
CC(=O)OCc1cnc(C)c2oc(=O)c(C(=O)Nc3ccc(F)cc3C)cc12 -2.12%
CCN(CC)S(=O)(=O)c1ccc2c(c1)N(CC(=O)N1CCN(c3cc(Cl)ccc3C)CC1)C(=O)CO2 -11.9%
CCc1ccccc1N1CC(c2nnc(NC(=O)c3ccco3)s2)CC1=O (configuration not stated) -9.31%
CCOc1ccccc1NC(=O)CSC1=Nc2ccccc2C2=NC(CC(=O)NC3CCCCC3)C(=O)N12 (configuration not stated) -17.4%
COc1ccc(OC)c(NC(=O)CSC2=Nc3ccccc3C3=NC(CCC(=O)NCc4ccco4)C(=O)N23)c1 (configuration not stated) -4.59%
CN(C)S(=O)(=O)c1ccc2c(c1)c(=O)c(C(=O)N1CCN(c3cccc(Cl)c3)CC1)cn2C -19.1%
O=S1(=O)c2ccccc2N(Cc2ccc(Cl)cc2F)c2ccccc21 -7.16%
CCOC(=O)c1ccc(NC(=O)CN(c2ccc(C)cc2)S(=O)(=O)c2ccc(OC)cc2)cc1 -16.2%
CCC(=O)Nc1nnc(S(=O)(=O)N(C)Cc2ccc(Cl)cc2)s1 -6.94%
CCC(Sc1nc2cc(OC)c(OC)cc2c(=O)n1Cc1ccc(Cl)cc1)C(=O)NCCOC (configuration not stated) -11.2%
CCC(CC)C(=O)Nc1c(C(=O)N2CCN(c3ccccc3F)CC2)oc2ccccc12 -36.4%
Cc1cc(NC(=O)c2cccnc2)cc(-c2nc3cc(Cl)ccc3o2)c1O -9.97%
COc1ccc(CCNC(=O)CN(c2ccc(C)cc2)S(=O)(=O)c2ccc(OC)cc2)cc1 -14%
COc1ccc(N2CCN(CCCNC(=O)Nc3ccccc3Cl)CC2)cc1 -11.7%
